The source gives no read counts; variants with many changes may rest on few reads.
B1: LINE1-mini (parent)
chain: GGCAGAGCUCAACACAGCGUGGCAAAGUGGCUGUGGCUAGACUGCC

Variants of: B1
Test: self-cleavage, relative activity (ratio to wild type); higher = more cleavage; in vitro, sequencing; the parent is a self-cleaving ribozyme

| Variant | self-cleavage |
| --- | --- |
| GGCUGAGCUCGAGACAGCGUGGCAAAGUGCCUGUGGCUAGACUGCC [A4U A11G C13G G30C] | 0.02 |
| GGCUGCGCUCAACACUCCGUGGCAAAGUGGGUGUGGCUAGACUGCC [A4U A6C A16U G17C C31G] | 0.01 |
| GGCUGGGCUCGACACAGCGGGGCAAAGUGGCUGUGGCUAGACUGCC [A4U A6G A11G U20G] | 0.05 |
| GGCUGAGCUCACAACAGCGUGGCAAGGUGACUGUGGCUACACUACC [A4U A12C C13A A26G G30A G40C G44A] | 0.03 |
| GGCUGCGUUCAACACAGCGUGGCAAAGUGGCUGUGGCUAGAUUUCC [A4U A6C C8U C42U G44U] | 0.7 |
| GGCUGAGCUCACUAAAGCGUGGCAAAGUGGCUGUGGCUAGACUGCC [A4U A12C C13U C15A] | 0.02 |
| GGCGGAGCACAACACAGCGUGGCCAAGUCGCUGUGGCUGGACUGGC [A4G U9A A24C G29C A39G C45G] | 0.14 |
| GGCGGAGCCCAAUACAUCGCGGCAAAGUGGCGGUAUCUAGACUGCC [A4G U9C C13U G17U U20C U32G G35A G36U] | 0.05 |
| GGCUGUGCUAAACAAAGCGUGGCAAAGUGGCUGUGGCUAGACUGCC [A4U A6U C10A C15A] | 0.01 |
| GGCUGAGCUCUACACAGCGUGGAAAAGUGGCUGUGGCUAGACUGCC [A4U A11U C23A] | 0.04 |
| GGCGGAGCUCAACACAGCGUGGCAAAGUGGCCGCGGCUAGUCUGCC [A4G U32C U34C A41U] | 0.03 |
| GGCUGAGCUCAUCAAAGCGUGGCAAAAUGGCUAAAGCUAGACUGUC [A4U A12U C15A G27A G33A U34A G35A C45U] | 0.03 |
| GGCGGAGCUCAACACAGCGAGGCAAAGUGGUUGUGGCUAGACUGCC [A4G U20A C31U] | 0.04 |
| GGCGGAGCGCAUCACAGCGUUGCAAAGUGGCUGUGGCUAGACUGCC [A4G U9G A12U G21U] | 0.06 |
| GGCGGAGCUCAACACAGCGUGGCAAAGUGGCGGUGGCUAGAAUGCC [A4G U32G C42A] | 0.13 |
| GGCGGAGCUCAACACAGCGAGGCAGAGUGGCUGGGCCUAGACUUCC [A4G U20A A25G U34G G36C G44U] | 0 |
| GGCGGAGCCCAACACAGCGUGGCAAAGUGGCUGUGGCUAGACUCCC [A4G U9C G44C] | 0.07 |
| GGCUGGGCUCAACACAGCGAGGCAAAGUGGUUGUGGCUAGACUGCC [A4U A6G U20A C31U] | 0.06 |
| GGCUGAGCUCCACACAGCGUGGCAAAGUGGCGGUGACUAGACUGCC [A4U A11C U32G G36A] | 0.05 |

| Variant | self-cleavage |
| --- | --- |
| GGCUGCGAUCUCGACAGCGUGGCAAAGUGGCUGUGAUUCGACUGCC [A4U A6C C8A A11U A12C C13G G36A C37U A39C] | 0 |
| GGCUGAGCUCACCACAGCGUGGCAAAGUGGCUGUGGAUAGACUGCC [A4U A12C C37A] | 0.01 |
| GGCGGAGCUCAACACAGCGUGGCAAAGUGGCAGUGGCUAGACUGAC [A4G U32A C45A] | 0.05 |
| GGCGGAGCUCAACACAGCGUGGCAAAGUGGCUUUGGCUAGACAGGC [A4G G33U U43A C45G] | 0.03 |
| GGCUGUGCUCAAAACAGCGUGGCAAAGCGGCUGUGGCUAGACUGCC [A4U A6U C13A U28C] | 0.03 |
| GGCUGGGCUCAACAAAGCGUGGCAAAGUGGCUGUGGUUAGACUGCG [A4U A6G C15A C37U C46G] | 0.01 |
| GGCUGCGCUCAACACAGCGUGGCAAAGUGGCUGUGGCUACAGUGCC [A4U A6C G40C C42G] | 0.02 |
| GGCGGAGCUCAACACAGCGAGGCAAAAUGGCUGAGGCUAGACUGCC [A4G U20A G27A U34A] | 0.04 |
| GGCGGAGCUCAACACAGCGUGGCAAAGUGGCUGUGGCUAAACUACC [A4G G40A G44A] | 0.03 |
| GGCUGAGCUCACCACAGCGUGGCAAAGUGGCAGUGGUUAGACUGCC [A4U A12C U32A C37U] | 0 |
| GGCUGAGCUCACCACAGCGUGGCAAAGUGGCGGUGGCUAGACUGCC [A4U A12C U32G] | 0 |
| GGCUGCGCUCAACACAGCGUUGCAAAGUGGCUGUGGCUAGACUGCC [A4U A6C G21U] | 0.04 |
| GGCGGAGCGCAACACAGCGUGGCAAAGUGGAGGUGGCUACACUGCC [A4G U9G C31A U32G G40C] | 0.12 |
| GGCGGAGCUCAACACAGCGUGGCAAAGUGGCUGUGACUGGAUUACC [A4G G36A A39G C42U G44A] | 0.06 |
| GGCGGAGCUCAACACAGCGCGGCAAAGUGGCGGUGGCUAGACUGCC [A4G U20C U32G] | 0.1 |
| GGCUGGGCUCAACACAGCAUGGCAAAGUGGCUGUUGCUAUACUGCC [A4U A6G G19A G35U G40U] | 0.13 |
| GGCGGAGCUCAACACAGCGUGGCAAAGGGGCUAUAGCUAGACUGCC [A4G U28G G33A G35A] | 0.11 |
| GGCUGCGAUCAACACAGCGUGGCAAAGUGGCUGUGGCCAGACUCCC [A4U A6C C8A U38C G44C] | 0.06 |
| GGCUGCGCUCAACACAGCGUGGCGAAGUGGCUGUGGCUAGACUGCC [A4U A6C A24G] | 0.05 |

| Variant | self-cleavage |
| --- | --- |
| GGCGGAGCGCAACACAACGUGGCAAAGUGGCUGUGGCUAGACUGCC [A4G U9G G17A] | 0.15 |
| GGCGGAGCACAACACAGCGUGCCAAAGUGGCUGUGGCUAGACUACC [A4G U9A G22C G44A] | 0.08 |
| GGCGGAGCCCAACACAGCGAAGCAAAGUGGCUGUGGCUAGAGUGCC [A4G U9C U20A G21A C42G] | 0.01 |
| GGCGGAGCUCAACACAGCGUGGCAAAGUGGCUGUGACAAGACUGCC [A4G G36A U38A] | 0.06 |
| GGCGGAGCUCAACACAGCGUGGCAAAGUGGCUUUGGCUAGACUGCA [A4G G33U C46A] | 0.01 |
| GGCUGAGCUCGACACAGCGUAGCAGAGUUGCUGUGGCUAGACAGCC [A4U A11G G21A A25G G29U U43A] | 0.01 |
| GGCUGAGCUCGACACAGCAUGGCAAAAUGGCUGUGGCAAGACUGCC [A4U A11G G19A G27A U38A] | 0.01 |
| GGCGGAGCACAACAGAGCGUGGCAAAGUGGCUGAGGCUAGACUGCC [A4G U9A C15G U34A] | 0.28 |
| GGCUGAGCUCUACACAGCGUCGCAAAGUGGCUGUGGCUAGAGUGCC [A4U A11U G21C C42G] | 0 |
| GGCUGUGCUCAACUUAGCGUGGCAAAGUAGCUGUGGCUACAAUGAC [A4U A6U A14U C15U G29A G40C C42A C45A] | 0.07 |
| GGCUGUGCUCAACACAGCGUGGCAAAGUGGCUGUGGCUAGACUGGC [A4U A6U C45G] | 0.07 |
| GGCUGAGCUCAGCACAGCGUGGCAAAGUGGCUGUGGCUAGACUGUC [A4U A12G C45U] | 0.35 |
| GGCUGAGCUCAGCACAGCGUGGCAAAUUGGCUGUGGCUAGACGGCC [A4U A12G G27U U43G] | 0.01 |
| GGCUGUGCUCAACACAGCGUGGCAAAGUGGCUGUUGCUAGACUGCC [A4U A6U G35U] | 0.15 |
| GGCGGAGCUCAACACAGCGUGGCAAAGUGGCUUUGUAUAGACUGCC [A4G G33U G36U C37A] | 0.02 |
| GGCUGAGCUCUACACAGGGUGGCAAAGUUGCUGUGGCUAGACUGCC [A4U A11U C18G G29U] | 0.02 |
| GGCGGAGCUCAACACAGCGUGGCAAAGUGGCCGUUGCUAGACUGCC [A4G U32C G35U] | 0.11 |
| GGCGGAGCCCAACACAGCGAGGCAAAGUGGAUGUGCCUAGACUGCC [A4G U9C U20A C31A G36C] | 0 |

From the RNAGym collection of RNA variant scans (doi:10.7554/elife.90254)
